Test results reported in the supplement of paper PMC9446081.
Screen size: about 39,000 compounds; about 220 (0.56%) showed activity. This is one part of the list.

These compounds were tested on Escherichia coli K-12 BW25113 (assay: relative growth (OD600 normalised to plate interquartile mean) (fraction); higher = less growth inhibition, active = 0.2 or less). Conditions: 50 µM; LB; incubation time: overnight (16-24 h).
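Further: static incubation at 37 °C against the wild-type strain, values averaged over two biological replicates.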

Compound	relative growth
Cc1cc(C(=O)Nc2cccc3c2O[C@@H](CN(C)S(=O)(=O)c2ccc(F)cc2)[C@@H](C)CN([C@@H](C)CO)C3=O)n(C)n1	inactive: 1.02
C[C@@H]1CN([C@H](C)CO)C(=O)c2cc(C#CC(C)(C)O)cnc2O[C@H]1CN(C)Cc1cccc(C(=O)O)c1	inactive: 1.01
COC(=O)[C@H](Cc1ccccc1)NC(=O)[C@@H](N)CC(=O)O	inactive: 0.989
COc1ccc(S(=O)(=O)N(C)C[C@H]2OCc3cnnn3CCCC(=O)N([C@@H](C)CO)C[C@@H]2C)cc1	inactive: 1.02
C=CCn1c(=O)n([C@H]2O[C@@H](CO)[C@@H](O)[C@@H]2O)c2[nH]c(N)nc(=O)c21	inactive: 0.989
C[C@@H]1CN([C@H](C)CO)C(=O)c2cc(NC(=O)Cn3cnnn3)ccc2O[C@@H]1CN(C)Cc1ccc(-c2ccccc2)cc1	inactive: 1
Cc1noc(C)c1S(=O)(=O)N(C)C[C@H]1Oc2ccc(NS(=O)(=O)c3cccs3)cc2CC(=O)N([C@H](C)CO)C[C@H]1C	inactive: 0.998
O=C(N[C@@H]1CC[C@H](CCNS(=O)(=O)c2ccc(F)cc2)O[C@H]1CO)C1CC1	inactive: 0.984
COc1ccc(cc1)S(=O)(=O)N1C[C@]2(CN(Cc3ccncc3)[C@@H](CO)c3[nH]c4cc(ccc4c32)OC)C1	inactive: 1
C[C@@H]1CCCCO[C@H](CN(C)Cc2ccc3c(c2)OCO3)[C@@H](C)CN([C@H](C)CO)C(=O)c2cc(NC(=O)Nc3ccc(C(F)(F)F)cc3)ccc2O1	inactive: 1.05
CCS(=O)(=O)N1CC[C@]2(CC1)CN([C@H](CO)c1[nH]c3cc(ccc3c12)OC)S(=O)(=O)c1cccc(c1)OC	inactive: 1.01
C[C@H]1CCCCO[C@H](CN(C)Cc2ccncc2)[C@@H](C)CN([C@@H](C)CO)C(=O)c2cc(NC(=O)C3CCCCC3)ccc2O1	inactive: 0.956
C[C@@H]1CCCCO[C@@H](CN(C)Cc2ccc(C(=O)O)cc2)[C@@H](C)CN([C@@H](C)CO)C(=O)c2cc(NC(=O)Nc3ccc(C(F)(F)F)cc3)ccc2O1	inactive: 0.953
C[C@H](CO)N1C[C@H](C)[C@H](CN(C)Cc2cccc(C(F)(F)F)c2)Oc2ncc(-c3ccccc3)cc2C1=O	inactive: 1.01
O=C(N[C@@H]1CC[C@@H](CC(=O)N2CCOCC2)O[C@@H]1CO)c1ccc2c(c1)OCO2	inactive: 1.02
CCS(=O)(=O)N1CC[C@]2(CC1)CN(Cc1ccc3c(c1)OCO3)[C@H](CO)c1c2c2ccc(cc2n1C)OC	inactive: 1.03
COc1ccc(NC(=O)N(C)C[C@H]2OCCCC[C@@H](C)Oc3ccc(NC(=O)Nc4ccc5c(c4)OCO5)cc3C(=O)N([C@H](C)CO)C[C@H]2C)cc1	inactive: 1.01
